# Out of some 410,000 compounds screened, about 1,200 (0.29%) were called active. Inconclusive results, whose numbers are uncertain, are shown with a selection of clear calls. The call rests on the fitted dose curve; in most records, active means well fitted activation curve with a large enough effect; inconclusive means small, poorly fitted or top-dose-only effect; inactive means flat fitted curve, though single readings scatter. Where the call is inconclusive, the potency comes from a doubtful curve fit.
# Assay: qHTS of Nrf2 Activators; further: nearly all actives have a fitted effect of over 65% in size; on activation: % of control where 0% means no effect
# Conditions: AREc32 ARE-luciferase reporter (MCF7-derived line), luminescence, 24 h; activation: at 46.1 µM (top of the series)
# Procedure, shortened: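 Steps: seed AREc32_Fluc cells (1000/well, 5% FBS OPTI-MEM); incubate overnight at 37 deg C; add 23 nL compound; incubate 24 hr; add Steady-Glo; hold 30 min RT; read luminescence.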
# Potency means the concentration at half of the fitted maximal effect; tags describe the fitted curve by direction and shape.
SMILES,Potency,activation
COC(=O)c1cc(NC(=O)c2c(F)c(F)c(F)c(F)c2F)cc(C(=O)OC)c1,"inconclusive: 17.8 µM [activator, single point]",–
CCCCCCN1C=CC=C/C1=C/C=C(C#N)C#N,–,inactive: -0.0977%
Nc1c(N(CCC2=CCCCC2)C(=O)c2ccc([N+](=O)[O-])o2)c(=O)[nH]c(=O)n1Cc1ccccc1,"inconclusive: 25.1 µM [activator, single point]",–
CC1Sc2n(c3ccccc3[n+]2C)N=C1c1ccccc1 (centres undefined),"inconclusive: 7.08 µM [activator, partial curve]",–
CC1CN(c2ccc([N+](=O)[O-])c(NCCOc3ccccc3)c2)CC(C)N1 (centres undefined),–,inactive: 10.2%
O=C(/C=C\c1ccco1)NC(=S)Nc1ccccc1O,active: 7.08 µM,–
O=C(OCCOc1ccccc1)c1cccc(S(=O)(=O)N2CCOCC2)c1,–,inactive: -0.107%
Cc1cc(C)c(S(=O)(=O)NCc2ccc3c(c2)CCN3C(=O)c2ccccc2)c(C)c1,–,inactive: 2.35%
Cc1cccc(NC(=O)CNC(=O)CN2C(=O)NC3(CCc4ccccc43)C2=O)c1C (centres undefined),–,inactive: -0.0116%
C=C1C(=O)OCC2C(C(=O)O)=CC3C(C)C(C)=CC123 (centres undefined),"inconclusive: 12.6 µM [activator, partial curve, poor fit]",–
O=C(Nc1nc2ccccc2[nH]1)c1cccc([N+](=O)[O-])c1,"inconclusive: 2.51 µM [activator, full curve, poor fit]",–
Cc1ccc(S(=O)(=O)c2nc(S(=O)(=O)CCO)sc2N2CCOCC2)cc1,"inconclusive: 11.2 µM [activator, partial curve]",–
CC(=O)c1cccc(OCc2cc(C(=O)N(C)Cc3ccc(C)o3)no2)c1,–,inactive: 5.09%
CCC(c1ccccc1)C(CC)c1cc(O)c(O)c(O)c1 (centres undefined),"inconclusive: 31.6 µM [activator, single point]",–
COc1ccc(-c2noc(N3CCC(C(=O)Nc4cccc(C)c4C)CC3)n2)cc1,–,inactive: -1.18%
COc1ccccc1C=NN=Cc1ccccc1O,"inconclusive: 20 µM [activator, single point]",–
CCOc1cc(C(c2c(C)[nH]n(-c3ccccc3)c2=O)c2c(C)[nH]n(-c3ccccc3)c2=O)ccc1O,"inconclusive: 12.6 µM [activator, partial curve, poor fit]",–
COc1cccc(NC(=O)c2cc(CN3C(=O)c4ccccc4C3=O)ccc2OC)c1,–,inactive: 1.85%
OC(c1cccc(Cl)c1)c1nc(-c2ccc(F)c(Cl)c2)cs1 (centres undefined),"inconclusive: 1.78 µM [activator, partial curve, poor fit]",–
CCN(CC)c1ccc(NC(=O)c2c(C)nn(-c3ccc(F)cc3)c2-n2cccc2)c(C)c1,–,inactive: 1.28%
Cc1csc(Sc2ccc(C(=O)OCC(=O)Nc3ccc(OC(F)(F)F)cc3)cc2[N+](=O)[O-])n1,"inconclusive: 17.8 µM [activator, single point]",–
CCCOC(=O)c1ccc(OCC(O)Cn2c(C)nc3ccccc32)cc1 (centres undefined),–,inactive: -0.11%
O=C(c1[nH]ncc1-c1ccc(Cl)cc1)C1CO1 (centres undefined),"inconclusive: 4.47 µM [activator, single point]",–
CCC(CC)C(=O)Nc1nnc(S(=O)(=O)N(C)c2cc(C)cc(C)c2)s1,–,inactive: 2.21%
CCOC(=O)C1CCCN(S(=O)(=O)c2cnc(Cl)c(Br)c2)C1 (centres undefined),"inconclusive: 28.2 µM [activator, single point]",–

SMILES,Potency,activation
Cc1ccc(-c2cc(C(=O)NCc3ccco3)c3ccccc3n2)s1,"inconclusive: 22.4 µM [activator, single point]",–
CCC(C)C(=O)Nc1nnc(-c2cccs2)s1 (centres undefined),"inconclusive: 8.91 µM [activator, partial curve]",–
Nc1ccccc1/C=N\N=C/c1ccccc1N,"inconclusive: 3.16 µM [activator, partial curve, poor fit]",–
Cc1ccc(S(=O)(=O)NCCC(=O)Nc2cc(S(=O)(=O)N(C)C)ccc2C)cc1C,–,inactive: -0.612%
O=C(CCl)Nc1cc(-c2ccccc2)nn1-c1ccccc1,"inconclusive: 3.98 µM [activator, single point]",–
Fc1ccc2cc(-c3ccsc3)ncc2c1,active: 8.91 µM,–
CCc1ccc2oc(-c3cc(N=Cc4cccc(OC)c4O)ccc3O)nc2c1,active: 10 µM,–
Cc1ccc2nc(NCc3ccccc3)c3nncn3c2c1,–,inactive: -0.462%
CN1CCN(C(=O)c2ccc3c(Cl)c4c(nc3c2)CCCC4)CC1,"inconclusive: 28.2 µM [activator, single point]",–
COc1ccc(NC(=O)c2c(NCc3ccc(C)o3)sc3c2CCCCC3)c(OC)c1,"inconclusive: 15.8 µM [activator, single point]",–
CCN(CC)c1ccc(C2C(C(=O)OC)=C(C)NC(C)=C2C(=O)OC)cc1,–,inactive: -0.507%
Cc1ccc(C(=O)Nc2nnc(SCc3cc(=O)n4ccc(C)cc4n3)s2)cc1,–,inactive: -0.123%
O=C1Nc2c(ccc(Cl)c2Cl)C(=O)C1(F)c1ccccc1 (centres undefined),"inconclusive: 20 µM [activator, single point]",–
Cc1cccc(NC(=O)CNC(=O)Cn2ncc(Cl)c(Cl)c2=O)c1C,"inconclusive: 2.82 µM [activator, full curve, poor fit]",–
O=C(O)/C=C/c1cccc(NS(=O)(=O)c2ccccc2)c1,–,inactive: -0.251%
O=C(NC(=S)Nc1ccccc1Cl)c1ccco1,active: 12.6 µM,–
Cc1ccc(-c2[nH]c3ccccc3c2C(C[N+](=O)[O-])c2ccco2)cc1 (centres undefined),"inconclusive: 14.1 µM [activator, single point]",–
Cc1ccc(C(NC(=O)N2CCCCC2)=C(Cl)Cl)cc1F,"inconclusive: 15.8 µM [activator, single point]",–
COc1ccc(C2Nc3ccccc3NC3=C2C(=O)CC(C)(C)C3)cc1O (centres undefined),"inconclusive: 31.6 µM [activator, single point]",–
C=CCc1c(C)nc2c(OC)cccc2c1Cl,"inconclusive: 14.1 µM [activator, single point]",–
CCOC(=O)c1c(NC(C)=O)c2c3c(sc2n1Cc1cccc(Cl)c1)CCCC3,"inconclusive: 20 µM [activator, single point]",–
COc1ccccc1NC(=O)c1ccc(C(=O)Nc2ccccc2OC)nc1,–,inactive: 5.42%
COc1cc(/C=N/Nc2ccccc2[N+](=O)[O-])cc(OC)c1O,active: 10 µM,–
Cc1ccc(C(=O)Nc2cc3c(cc2Cl)OCCCO3)cc1,"inconclusive: 14.1 µM [activator, single point]",–
COc1ccc(-c2csc3nc(-c4cccnc4)nc(Cl)c23)cc1OC,"inconclusive: 2.82 µM [activator, full curve, poor fit]",–

SMILES,Potency,activation
NC(=O)c1cc2nc(-c3ccco3)cc(C(F)(F)F)n2n1,"inconclusive: 15.8 µM [activator, single point]",–
CC1(C)C(c2ccccc2)=NC(c2ccccc2)N1O (centres undefined),"inconclusive: 17.8 µM [activator, single point]",–
O=C(C=Cc1ccccc1)c1cc(Br)ccc1O,"inconclusive: 20 µM [activator, single point]",–
O=C1CN(C(=O)COC(=O)/C=C/c2ccco2)c2ccccc2N1,active: 12.6 µM,–
O=C(NC1(C(F)(F)F)Oc2ccccc2O1)N1CCCC1,"inconclusive: 22.4 µM [activator, single point]",–
O=C(Nc1ccncc1)c1c(F)c(F)c(F)c(F)c1F,"inconclusive: 15.8 µM [activator, single point]",–
COc1cc(C(=O)NC2CCN(C)CC2)ccc1Nc1ncc2c(n1)N(CCc1ccccc1)CCC(=O)N2C,–,inactive: -2.94%
Cc1ccc(-c2nc3cccnc3s2)cc1NC(=O)c1ccco1,"inconclusive: 2.51 µM [activator, partial curve, poor fit]",–
Cc1ccc(/C=C/C(=O)c2c(C)nc3ccccn23)cc1,"inconclusive: 4.47 µM [activator, single point]",–
NC(=O)CC(NC(=O)Cc1cccc2ccccc12)c1ccc(NC2CCCCCCC2)c([N+](=O)[O-])c1 (centres undefined),–,inactive: -0.788%
O=c1cc(-c2ccccc2Cl)oc2cc(O)cc(O)c12,–,inactive: 3.06%
Cc1ccc(C(=O)Nc2nc3ccccc3c(=O)s2)cc1,"inconclusive: 2.24 µM [activator, full curve, poor fit]",–
COC(=O)c1sccc1NC(=O)c1ccccc1,active: 7.08 µM,–
O=C1C2CC=CCC2C(=O)N1c1ccc(Cc2ccncc2)cc1 (centres undefined),–,inactive: -0.677%
CC1(C)Cc2c(sc(NC(=O)c3ccc4ncsc4c3)c2C(N)=O)C(C)(C)N1,"inconclusive: 22.4 µM [activator, single point]",–
Cc1cc(NC(=O)Nc2cc(Cl)sc2Cl)no1,active: 3.16 µM,–
Cc1cc(OC(=O)c2c(Cl)cc(Cl)cc2Cl)nc(C)n1,"inconclusive: 20 µM [activator, partial curve, poor fit]",–
O=C(Oc1ccc(Nc2ncnc3ccccc23)cc1)c1cccnc1,"inconclusive: 12.6 µM [activator, single point]",–
O=C(Cn1cnnn1)Nc1ccccc1Cc1ccccc1,–,inactive: -0.478%
Cc1ccc2c(c1)C(c1ccc(F)cc1)N(C(=O)C(C)C)CC(=O)N2 (centres undefined),"inconclusive: 17.8 µM [activator, single point]",–
CCc1nnc(NC(=O)c2nc(S(=O)(=O)Cc3ccccc3)ncc2Cl)s1,active: 14.1 µM,–
Cc1cc(C)n2nc(-c3ccccc3)cc2n1,active: 8.91 µM,–
NC(=O)c1ccsc1NC(=O)COC(=O)c1nc(Cl)ccc1Cl,"inconclusive: 11.2 µM [activator, partial curve, poor fit]",–
COCc1cc(=O)[nH]c(Nc2nc3ccc(C)cc3o2)n1,active: 12.6 µM,–
